PubChem BioAssay AID1458 (National Center for Advancing Translational Sciences (NCATS), 2008)
Out of some 210,000 compounds screened, about 5,900 (2.8%) were called active. This list was built around the results that the source calls inconclusive (neither active nor inactive); the mix of calls is not that of the screen. Calls come from the whole dose curve; as a rule, active = well fitted activation curve with a large enough effect; inconclusive = small, poorly fitted or top-dose-only effect; inactive = no such curve, though single readings can be large or run the other way. Potencies of inconclusive entries are doubtful fits and often do not repeat.

Test: qHTS Assay for Enhancers of SMN2 Splice Variant Expression; note: nearly all actives have a fitted effect of over 55% in size; for activity change, positive = activation: % of control where 0% means no effect
Details: HEK293 SMN2-luciferase splicing reporter, luminescence, 30-36 h; activity change, positive = activation: at 46.1 µM (top of the series)
Procedure, shortened: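 HEK293 cells carry an SMN2 […]–luciferase reporter in which exon 7 inclusion puts luciferase in frame. Cells were plated 10-12 h before compound addition, then incubated 30-36 h at 37C. ONE-Glo luminescence was read; sodium butyrate at 4.5 mM final served as control.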
Potency is the fitted concentration of half-maximal effect; tags give direction and shape of the fitted curve.

| SMILES | Potency | activity change, positive = activation |
| --- | --- | --- |
| COc1ccc(NC(C)=O)cc1NC(C)C(=O)Nc1cccc2ccccc12 (stereo unspecified) | inconclusive: 7.08 µM [activator, partial curve, poor fit] |  |
| COc1ccc2nc(CC(C)(C)CC(=O)O)c[n+]([O-])c2c1 | inconclusive: 0.398 µM [activator, full curve] |  |
| Cc1cccc(CNc2cc(-c3ccoc3)ncn2)c1 |  | inactive: -3.32% |
| CCCn1c(-c2ccc(F)cc2)nc2c(NCCN(C)C)nc(C)nc21 |  | inactive: 1.12% |
| CC1CCN(C(=O)CSc2nc3ccccc3s2)CC1 | inconclusive: 11.2 µM [activator, partial curve] |  |
| C=CCNc1nc(-c2ccc(OC)cc2OC)cs1 | inconclusive: 20 µM [activator, single point] |  |
| CCn1c(N)c(C(=O)NCc2ccc3c(c2)OCO3)sc1=S | inconclusive: 10 µM [activator, partial curve] |  |
| CC(=O)c1ccc(NC(=O)c2noc3c2CCCCC3)cc1 | active: 8.91 µM |  |
| C=CCOC(=O)/C(=C/c1cccc2ccccc12)NC(=O)c1ccccc1 | inconclusive: 0.224 µM [activator, full curve, poor fit] |  |
| Cc1ccccc1OCc1nnc(SCC(=O)NCc2ccccc2)n1C | inconclusive: 0.282 µM [activator, full curve] |  |
| COc1ccc(CN2C=C3C(=O)C(C)(OC(=O)CCc4ccccc4)C(=O)C=C3C=C2c2ccc(C#N)cc2)cc1 (stereo unspecified) | inconclusive: 0.1 µM [activator, full curve] |  |
| COc1ccc(CNC(=O)c2cc3oc4ccccc4c3n2C)cc1OC | inconclusive: 31.6 µM [activator, single point] |  |
| Cc1cc2cc(CNC(=O)NC3CCCCC3)ccc2[nH]1 | inconclusive: 0.251 µM [activator, partial curve, poor fit] |  |
| CCC(=O)Nc1ccc2oc(-c3ccccc3Br)nc2c1 | active: 10 µM |  |
| CC(/C=N/NC(=O)c1cc(-c2ccc(C)o2)[nH]n1)=C\c1ccccc1 | inconclusive: 35.5 µM [activator, single point] |  |
| COc1ccc(NC(=O)Cn2nnc(C(=O)NCc3ccccc3)c2N)cc1Cl | inconclusive: 17.8 µM [activator, partial curve] |  |
| O=S1(=O)N=C(Nc2ccc(N3CCOCC3)cc2)c2ccccc21 | inconclusive: 15.8 µM [activator, partial curve, poor fit] |  |
| Cc1ccccc1NC(=O)NCCc1nc2ccccc2[nH]1 | inconclusive: 0.398 µM [activator, full curve, poor fit] |  |
| CCOc1ccc2nc(SCC(=O)c3cccs3)sc2c1 | inconclusive: 17.8 µM [activator, partial curve, poor fit] |  |
| CC(=O)Nc1ccc2nc(SCC(=O)Nc3ccc(N4CCOCC4)c(Cl)c3)sc2c1 | inconclusive: 35.5 µM [activator, single point] |  |
| CCOC(=O)c1cnn(-c2ccc(F)cc2)c1N |  | inactive: 2.55% |
| COc1ccc(C(CC(=O)Nc2nccs2)n2cccc2)cc1 (stereo unspecified) | active: 10 µM |  |
| COC(=O)/C(=C1\OC(=O)C(c2ccccc2)C1=O)c1ccccc1 (stereo unspecified) | active: 12.6 µM |  |

| SMILES | Potency | activity change, positive = activation |
| --- | --- | --- |
| COc1ccc(CCNC(=O)CSCc2nc(-c3cccc(C)c3)oc2C)cc1OC |  | inactive: -27.2% |
| COc1cccc(/C=N/n2c(N)nc3ccccc32)c1OC | inconclusive: 0.447 µM [activator, full curve, poor fit] |  |
| COc1ccc(NC(=O)c2nc3nccc(C)n3n2)cn1 | inconclusive: 15.8 µM [activator, partial curve] |  |
| CCOC(=O)C1CCN(C(=O)CNS(=O)(=O)c2cccs2)CC1 | inconclusive: 0.447 µM [activator, full curve] |  |
| CCOP(=O)(c1c(F)c(F)c(F)c(F)c1F)C1(O)CCCCC1 (stereo unspecified) | inconclusive: 25.1 µM [activator, partial curve, poor fit] |  |
| COc1cccc(C(=O)N(CN2CCCC2=O)c2cccc(Cl)c2)c1OC |  | inactive: -7% |
| O=C(COc1ccccc1)N1CCN(C(=O)c2ccco2)CC1 | inconclusive: 0.0141 µM [activator, full curve, poor fit] |  |
| COC(=O)N[C@@H](c1cccc(F)c1)[C@@H](C)[N+](=O)[O-] |  | inactive: 6.94% |
| O=C(NC1=NCCS1)c1cccc(N2C(=O)c3ccccc3C2=O)c1 |  | inactive: -11.7% |
| Cc1ccc(NC(=S)NC2CCCC2)cc1C | inconclusive: 11.2 µM [activator, partial curve] |  |
| Cc1occc1C(=O)NCCc1cccc(Cl)c1 | inconclusive: 11.2 µM [activator, partial curve] |  |
| O=C(CSc1cn(CCNC(=O)c2c(F)cccc2F)c2ccccc12)Nc1ccc(F)cc1 |  | inconclusive: 30.1% [activator] |
| CC1C(=O)NN=C1C(=O)N/N=C\C(Br)=C\c1ccccc1 (stereo unspecified) | active: 22.4 µM |  |
| CCc1nnc(NS(=O)(=O)c2ccc(N/C=C/C(=O)c3ccc(C)cc3)cc2)s1 | inconclusive: 0.794 µM [activator, full curve, poor fit] |  |
| CCC(C)(NC(=O)CNC(C)=O)C(=O)NC1CCCCC1 (stereo unspecified) | inconclusive: 0.0032 µM [activator, full curve, poor fit] |  |
| COc1cc(CNc2nc(C)c([N+](=O)[O-])c(C)c2C#N)cc(OC)c1OC |  | inactive: -57.6% |
| Cc1ccccc1NC(=O)CC1(c2ccc(N(C)C)cc2)C(=O)c2ccccc2C1=O |  | inactive: 7.89% |
| CCn1nc(-c2ccccc2)c(-c2ccccc2)c(C(=O)Nc2nc(C)c(C(C)=O)s2)c1=O |  | inactive: -7% |
| OCCSc1c(F)c(SCCO)c(SCCO)c(F)c1SCCO | inconclusive: 0.0398 µM [activator, full curve, poor fit] |  |
| COC(=O)CCN(C(=O)c1ccc2c(c1)OCO2)c1ccccn1 | inconclusive: 0.0158 µM [activator, full curve, poor fit] |  |
| Cc1nc2c3cnn(-c4ccccc4)c3ncn2n1 | inconclusive: 14.1 µM [activator, single point] |  |
| COc1ccccc1N1CCN(/N=C/C=C\c2ccco2)CC1 | active: 12.6 µM |  |
| O=C(CSc1ccc(Cl)cc1)NCc1ccncc1 |  | inactive: -10.9% |
